Measured values reported in PMC4336329 (PLoS ONE, 2015).
About 14,000 (4.5%) of roughly 310,000 compounds showed an effect of 50% or more. Effects have a minus sign here. The list shows a part of the results.

Each compound was assayed against human ether-à-go-go-related gene (hERG) potassium channel (human, UniProt Q12809) (assay: primary screen, population patch clamp on CHO cells stably expressing hERG).
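Note: peak tail current of the secondary pulse compared with the same well before compound.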

Chain of human ether-à-go-go-related gene (hERG) potassium channel (Q12809 whole entry, looked up): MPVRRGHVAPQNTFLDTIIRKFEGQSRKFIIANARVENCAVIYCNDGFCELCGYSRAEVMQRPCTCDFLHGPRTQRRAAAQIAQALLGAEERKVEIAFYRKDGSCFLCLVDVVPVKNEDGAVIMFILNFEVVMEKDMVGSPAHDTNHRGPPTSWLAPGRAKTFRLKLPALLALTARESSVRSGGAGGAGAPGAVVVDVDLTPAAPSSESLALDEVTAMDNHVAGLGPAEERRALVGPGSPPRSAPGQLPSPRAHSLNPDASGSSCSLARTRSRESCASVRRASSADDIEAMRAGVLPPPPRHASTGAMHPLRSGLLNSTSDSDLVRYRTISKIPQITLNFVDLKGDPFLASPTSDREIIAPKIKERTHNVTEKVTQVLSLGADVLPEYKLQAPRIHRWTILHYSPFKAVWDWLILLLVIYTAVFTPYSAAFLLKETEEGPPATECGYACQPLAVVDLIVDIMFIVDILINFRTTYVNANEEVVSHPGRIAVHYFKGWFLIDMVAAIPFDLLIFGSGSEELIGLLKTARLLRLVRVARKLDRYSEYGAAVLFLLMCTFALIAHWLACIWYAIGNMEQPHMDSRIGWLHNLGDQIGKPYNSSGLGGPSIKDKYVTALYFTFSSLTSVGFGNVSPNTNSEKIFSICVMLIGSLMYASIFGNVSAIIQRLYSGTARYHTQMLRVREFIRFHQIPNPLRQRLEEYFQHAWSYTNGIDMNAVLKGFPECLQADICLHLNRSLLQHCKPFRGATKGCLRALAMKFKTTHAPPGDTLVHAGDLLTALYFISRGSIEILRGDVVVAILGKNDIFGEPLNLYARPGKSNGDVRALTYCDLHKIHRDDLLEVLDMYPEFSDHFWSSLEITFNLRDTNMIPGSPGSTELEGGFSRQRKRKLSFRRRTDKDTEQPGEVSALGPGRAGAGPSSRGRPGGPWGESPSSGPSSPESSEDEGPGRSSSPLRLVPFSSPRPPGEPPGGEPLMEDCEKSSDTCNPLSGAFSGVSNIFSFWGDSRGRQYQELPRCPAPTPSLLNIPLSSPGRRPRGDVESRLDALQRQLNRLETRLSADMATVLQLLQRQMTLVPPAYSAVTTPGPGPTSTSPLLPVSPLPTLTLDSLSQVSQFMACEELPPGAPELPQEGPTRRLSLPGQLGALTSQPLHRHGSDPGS

SMILES | hERG current change (%, negative = inhibition) at 10uM [%]
O[C@@H]1CN(Cc2ccc(-n3cccn3)cc2)CC[C@H]1N1CCN(c2ccccc2F)CC1 | -67.5
CCCOc1cccc(C(=O)NCCNC(=O)c2ccccn2)c1 | 2.07
COC(=O)c1ccsc1NC(=O)CN1CCN(c2ncccn2)CC1 | -1.35
COc1ccc(C2(C)NC(=O)N(CC(=O)NC(C)c3ccc(CC(C)C)cc3)C2=O)cc1 (stereo not drawn) | -7.75
O=C(NNC(=O)c1ccncc1)Nc1ccc([N+](=O)[O-])cc1 | 11.2
COc1ccc(-c2cn(-c3ccc(C)cc3)c(=O)n2CC(=O)Nc2ccc(OC)c(OC)c2)cc1 | -2.89
CCOC(=O)c1ccc2c(c1)N(CC)C(=O)c1ccccc1S2 | -6.71
Oc1csc(Cc2nc(-c3ccc(-c4ccccc4)cc3)cs2)n1 | 4.65
N#Cc1c(Cl)nsc1NC(=O)c1ccccc1 | 8.24
O=C(Nc1ccc2c(c1)CCC2)c1cccc(S(=O)(=O)Nc2ccccc2Cl)c1 | 10.4
O=C1c2ccccc2S(=O)(=O)N1Cc1cccc(S(=O)(=O)N2CCOCC2)c1 | -41.4
CCC(=O)Nc1nnc(SCC(=O)NC2CCCC2)s1 | -1.06
CCCCOc1ccc(C(=O)NCC(=O)NCCOc2ccccc2OC)cc1 | -10.2
COCC(=O)Nc1ccc(N(C)C)cc1 | 3.03
CCOc1ccccc1NC(=O)CN1C(=O)COc2ccc(C)cc21 | 11
COc1ccc(CCNC(=O)C(=O)NCC2OCCN2S(=O)(=O)c2ccc(Br)cc2)cc1OC (stereo not drawn) | -33.8
O=C(CCc1ccccc1)N=C1SC2CS(=O)(=O)CC2N1c1ccccc1F (stereo not drawn) | 10.5
O=S(=O)([O-])c1cc(O)ccc1O.[K+] | 3.7
CCCCn1cnc2c(sc3nc4c(cc32)CSC(C)(C)C4)c1=O | 6.96
COC(=O)c1sccc1NC(=S)N(C)C1CCCCC1 | -8.5
O=C(CC1C(=O)NCCN1Cc1ccoc1)NCc1cccc(OC(F)(F)F)c1 (stereo not drawn) | 1.19
COc1ccc(C(=O)N2CCN(C)C(=O)[C@@H]2C)cc1OC1CCN(C(C)=O)CC1 | 12.6

SMILES | hERG current change (%, negative = inhibition) at 10uM [%]
CCC(=O)N/C(=N/c1nc(C)cc(C)n1)Nc1ccc(OC)cc1 | 4.3
COc1ccc(CCNC(=O)c2cccc(NC(=O)CC3SC(N4CCCCC4)=NC3=O)c2)cc1OC (stereo not drawn) | 11.7
O=c1cc(N2CCc3ccccc3C2)[nH]c(=O)n1-c1ccccc1Cl | 2.99
CCn1c(CCNC(=O)c2cccs2)nnc1SCC(=O)Nc1cccc(Cl)c1 | -64.5
CCCN1CN(Cc2ccccc2)CNC1=S | 15.9
Cc1cc(NCCCCO)n2c(nc3ccccc32)c1C#N | -18.6
CC(=O)c1cc(O)c2ccccc2c1O | -2.58
CCCNC(=O)COC(=O)c1ccc(OCC(=O)Nc2ccccc2OC)c(OC)c1 | 9.81
CC(C)(C)c1cc(C(=S)N2CCN(CCO)CC2)cc(C(C)(C)C)c1O | -26.6
CCc1ccccc1NC1=NCC(=O)N1Cc1ccc(OC)cc1.Cl | -10
COc1ccccc1NC(=O)C(C)NS(=O)(=O)c1ccccc1 (stereo not drawn) | -8.34
COc1ccc(C2(c3ccc(OC)cc3)NC(=O)N(CC(=O)Nc3ccccc3)C2=O)cc1 | 28.6
Cc1ccc(Nc2ncnc3sc(C)c(C)c23)cc1 | 3.98
O=C(NC1CCCC1)c1noc2c1CCCCC2 | 9.09
O=C(O)c1ccc2c(=O)n3c(nc2c1)/C(=C/c1cccc(Cl)c1Cl)CC3 | 14.1
O=C(Nc1ccc2c(c1)OCO2)c1ccc(COc2ccc3c(c2)CCC3)o1 | 5.22
C/C(=N/NC(=O)c1cnccn1)c1cccs1 | -0.105
Cc1noc(C)c1C(=O)Nc1ccccc1C(=O)NCCc1ccccc1 | 8.93
O=C(COc1ccc(Cl)cc1)Nc1nc(-c2ccc(S(=O)(=O)N3CCOCC3)cc2)cs1 | 7.29
Cc1ccc(C)c(OCCC(=O)OCC(=O)c2ccc3c(c2)NC(=O)CO3)c1 | -3.46
CC(=O)c1c(C)[nH]c(C(=O)OCC(=O)N2c3ccccc3NC(=O)C2(C)C)c1C | 4.95
C/C(=N\O)c1cc(Cl)cc(Cl)c1O | -11

SMILES | hERG current change (%, negative = inhibition) at 10uM [%]
O=C(CN1CCN(c2ccccc2)CC1)N1CCc2ccccc21 | -18.2
COc1ccc(/C=N\Nc2ccccc2[N+](=O)[O-])c(C(=O)O)c1OC | 13.5
Nc1c(Cl)cc(Cl)cc1C(=O)OCC(=O)NC1CC1 | -16.6
Cc1cc(=O)oc2c3c(cc(OCC(=O)NC(Cc4ccc(Cl)cc4)C(=O)O)c12)OC(C)(C)CC3 (stereo not drawn) | 15.7
CCOC(=O)c1ccc(N/C(=N\S(=O)(=O)c2ccc(F)cc2F)c2ccccc2)cc1 | -2.73
O=C(O)/C=C/c1cn(Cc2ccccc2)nc1-c1ccc(Cl)cc1 | 21.7
O=C(NCCN1CCOCC1)C(=O)NCC1OCCN1S(=O)(=O)c1ccc(F)cc1 (stereo not drawn) | 7.19
CCOC(=O)c1ccc(-n2c(C)ccc2C)cc1 | 6.3
COCCNC(=S)N(CCO)Cc1cc2cc3c(cc2[nH]c1=O)OCCO3 | 5.51
CCOc1ccc(NC(=O)C2CCCN2C(=O)OCc2ccccc2)cc1 (stereo not drawn) | -19.9
CCN(CC)C(C(=O)NC1CCCCC1)c1ccc(C)cc1 (stereo not drawn) | -0.937
COc1ccc(S(=O)(=O)Cc2ccc(C(=O)N3CCN(c4cccc(C)c4C)CC3)o2)cc1 | -30.6
CC1CN(C(=O)COC(=O)c2cc(=O)c3ccccc3o2)CC(C)O1 (stereo not drawn) | 21.3
Cc1ccc(-n2nc3cc(C)c(NC(=S)NC(=O)/C=C/c4ccco4)cc3n2)cc1 | 19.3
c1ccc2c(c1)OCCOCCOCCOCCOCCOc1ccccc1OCCOCCOCCO2 | -59.2
COc1ccnc(Oc2ccc(F)cc2)c1C(=O)N/C=N/OCc1cccc(F)c1 | -26.1
Cc1cc(NC(=O)c2ccc(C#N)cc2)n(-c2ccccn2)n1 | -2.63
CSc1cccc(N2CC(C(=O)NCCC3=CCCCC3)CC2=O)c1 (stereo not drawn) | 14.1
Cc1ccc(-c2nnc(C)c(N3CC(C)OC(C)C3)n2)cc1 (stereo not drawn) | -3.31
C[C@]12CCC(=O)C=C1CC[C@@H]1[C@@H]2CC[C@@]2(C)[C@H]1CC[C@@]21CCC(=O)O1 | -18.4
CCN(CC)c1ccc(NC(=O)CSc2nc3ccccc3c(=O)[nH]2)cc1 | 2.45
COC(=O)c1sc(S(=O)(=O)N2CC[NH+](CCO)CC2)c(C(=O)OC)c1C.[Cl-] | 7.93

SMILES | hERG current change (%, negative = inhibition) at 10uM [%]
Cc1ccc(C)c(OCCC(=O)OCC(=O)NCCNC(=O)COC(=O)CCOc2cc(C)ccc2C)c1 | 4.21
CCOC(=O)c1c(N)nn(C(=O)c2ccccc2F)c1-c1ccc(OC)cc1 | 3.53
COCCSc1nnc(NC(=O)COC)s1 | 11.1
Cc1ccc(CSc2nc3c(c(=O)[nH]c(=O)n3C)n2CCC(C)C)cc1 | 6.82
CS(=O)(=O)N1CCc2cc(S(=O)(=O)Nc3ccc4c(c3)OCCO4)ccc21 | -12.7
CC(C)(C)c1ccccc1NC(=O)c1ccco1 | 5.62
CC1CCc2sc(C(=O)NNC(=S)NCC3CCCO3)cc2C1 (stereo not drawn) | -5.76
CCOc1ccc(/C(C)=N/NC(=O)Cn2nc([N+](=O)[O-])cc2C)cc1 | 4.76
COc1cccc(CNCCc2c[nH]c3ccccc23)c1OC.Cl | -11.1
COc1ccccc1C(=O)N1CCN(S(=O)(=O)c2ccccc2)CC1 | -3.1
CCOC(=O)COc1ccc2c(c1)C(=O)CC(C)(c1cccnc1)O2 (stereo not drawn) | 7.09
O=C1C(CCS(=O)c2ccccc2)C(=O)N(c2ccccc2)N1c1ccccc1 (stereo not drawn) | 20.8
C#CCn1c(-c2cccs2)nc2ccccc21 | -0.381
CC(C)(C)OC(=O)NN=C(c1ccc(O)cc1)c1ccc(O)cc1 | 22.7
COc1ccc(OC)c(NC(=O)c2ccccc2NS(=O)(=O)c2cccc3cccnc23)c1 | -0.0217
CCCCN(C(=O)CNC(=O)c1ccco1)C(C(=O)NC1CCCC1)c1ccc(OC)cc1 (stereo not drawn) | -20.1
COC(=O)c1sccc1NC(=O)Cn1cnc2c1c(=O)n(C)c(=O)n2C | 0.488
O=S(=O)(c1ccc(Oc2ccc(S(=O)(=O)N3CCOCC3)cc2)cc1)N1CCOCC1 | 9.29
CS(=O)(=O)N1CCN(c2ccc(NC(=O)c3ccccc3)cc2)CC1 | 1.23
O=C(CN1CCN(Cc2ccccc2Cl)C1=O)NC1CCCCCCC1 | -17.1
Cn1c(C(=O)N[C@@H](Cc2ccccc2)C(=O)O)cc2cc(F)ccc21 | 25.9
